# According to the supplement of paper PMC10369915:
# This is one part of the list. No stated cut-off is given here; in the data, active = 3.2 or more and inactive = the rest. Most of these values are background signal.
# B1: MMUT_Y364_N366S (peptide)
# chain: TEQDPYNSIVR
# B2: MMUT_Y364_Y364S (peptide)
# chain: TEQDPSNNIVR
# B3: MNS1_Y244 (peptide)
# chain: NAMRRYIEEFQ
# B4: MPG_Y71_YF (peptide)
# chain: TTPGPYRSIFF
# B5: MPG_Y75_Y71H (peptide)
# chain: PHRSIYFSSPK
# B6: MPL_Y591 (peptide)
# chain: QAQMDYRRLQP
# B7: MPL_Y591_L594W (peptide)
# chain: QAQMDYRRWQP
# B8: MPP4_Y566 (peptide)
# chain: KVITDYYVDMK
# B9: MPP4_Y566_V562I_YF (peptide)
# chain: KIITDYFVDMK
# B10: MPP4_Y566_YF (peptide)
# chain: KVITDYFVDMK
# B11: MPP4_Y567 (peptide)
# chain: VITDYYVDMKF
# B12: MPP4_Y567_YF (peptide)
# chain: VITDFYVDMKF
# B13: MPZ_Y177_Y177C_YF (peptide)
# chain: LLLLFCVVRFC
# B14: MPZ_Y220 (peptide)
# chain: QTPVLYAMLDH
# B15: MPZ_Y220_D224Y (peptide)
# chain: QTPVLYAMLYH
# B16: MPZ_Y82_H81R (peptide)
# chain: ISIFRYAKGQP
# B17: MPZ_Y82_H81Y (peptide)
# chain: ISIFYYAKGQP
# B18: MPZ_Y82_H81Y_YF (peptide)
# chain: ISIFFYAKGQP
# B19: MPZ_Y82_S78W (peptide)
# chain: IWIFHYAKGQP
# B20: MRGPRX1_Y130_R131S (peptide)
# chain: LWPIWYSCHRP
# B21: MRPL3_Y265_YF (peptide)
# chain: KMGNIYRTEFG
# B22: MRPS34_Y34 (peptide)
# chain: RDSQLYAVDYE
# B23: MSH2_Y563_E562V (peptide)
# chain: SLNEVYTKNKT
# B24: MSH2_Y856_E853A (peptide)
# chain: LEAFQYIGESQ
# B25: MSH2_Y856_S860L (peptide)
# chain: LEEFQYIGELQ
# B26: MSH6_Y8 (peptide)
# chain: RQSTLYSFFPK
# B27: MST1R_Y1360_Y1360C (peptide)
# chain: QLPATCMNLGP
# B28: MT-ATP8_Y33 (peptide)
# chain: MLNTNYHLPPS
# B29: MT-CO1_Y304_F305L (peptide)
# chain: VDTRAYLTSAT
# B30: MT-CYB_Y75_I78V (peptide)
# chain: TRDVNYGWVIR
# B31: MTHFD1_Y52_L51P (peptide)
# chain: DDSNPYINVKL
# B32: MTHFS_Y197_T202A (peptide)
# chain: VDEVLYEDSSA
# B33: MTM1_Y260 (peptide)
# chain: KDDEKYLDVIR
# B34: MTM1_Y277_A279G (peptide)
# chain: SKLTIYDGRPS
# B35: MTM1_Y71 (peptide)
# chain: TNYRLYLRSLE
# B36: MTM1_Y71_L70F (peptide)
# chain: TNYRFYLRSLE
# B37: MTM1_Y71_L70F_YF (peptide)
# chain: TNFRFYLRSLE
# Biological target: SHP2 C-SH2 domain E139D
# Assay: enrichment score (SH2-bound / input frequency) (ratio); bacterial display of known human phosphotyrosine sites (pTyr-Var adds point mutants) read by sequencing; higher = stronger binding; tyrosines were phosphorylated by kinases first
# Conditions: peptide library: pTyr-Var
# 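Further: displayed peptides selected on beads carrying the immobilized SH2 domain, with library peptides lacking any tyrosine serving as negative controls.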
row,Binder,enrichment score
1,B1,inactive: 0.552
2,B2,inactive: 0.482
3,B3,inactive: 0.511
4,B4,inactive: 0.783
5,B5,inactive: 0.913
6,B6,inactive: 0.539
7,B7,inactive: 0.602
8,B8,inactive: 1.19
9,B9,inactive: 1.26
10,B10,inactive: 1.21
11,B11,inactive: 1.29
12,B12,inactive: 1.47
13,B13,inactive: 1.7
14,B14,inactive: 1.24
15,B15,inactive: 0.79
16,B16,inactive: 0.468
17,B17,inactive: 0.78
18,B18,inactive: 0.623
19,B19,inactive: 2.76

row,Binder,enrichment score
1,B20,inactive: 0.623
2,B21,inactive: 0.652
3,B22,inactive: 0.667
4,B23,inactive: 0.632
5,B24,inactive: 1.32
6,B25,inactive: 0.982
7,B26,inactive: 1.46
8,B27,inactive: 1
9,B28,inactive: 0.899
10,B29,inactive: 0.687
11,B30,inactive: 0.933
12,B31,inactive: 0.627
13,B32,inactive: 0.546
14,B33,inactive: 0.694
15,B34,inactive: 0.821
16,B35,inactive: 1.15
17,B36,inactive: 0.986
18,B37,inactive: 0.805

# Biological target: SHP2 C-SH2 domain wild-type
# Assay: as above
# Conditions: peptide library: pTyr-Var
row,Binder,enrichment score
1,B1,inactive: 0.678
2,B2,inactive: 0.479
3,B3,inactive: 0.504
4,B4,inactive: 1.65
5,B5,inactive: 0.756
6,B6,inactive: 0.653
7,B7,inactive: 0.664
8,B8,inactive: 0.901
9,B9,inactive: 1.28
10,B10,inactive: 1.18
11,B11,inactive: 1.26
12,B12,inactive: 1.61
13,B13,inactive: 1.63
14,B14,inactive: 1.8
15,B15,inactive: 0.933
16,B16,inactive: 0.356
17,B17,inactive: 0.876
18,B18,inactive: 1.11
19,B19,inactive: 2.93

row,Binder,enrichment score
1,B20,inactive: 0.763
2,B21,inactive: 0.585
3,B22,inactive: 0.73
4,B23,inactive: 0.611
5,B24,inactive: 1.05
6,B25,inactive: 0.774
7,B26,inactive: 1.55
8,B27,inactive: 0.833
9,B28,inactive: 0.884
10,B29,inactive: 0.976
11,B30,inactive: 0.888
12,B31,inactive: 0.674
13,B32,inactive: 0.683
14,B33,inactive: 0.676
15,B34,inactive: 0.798
16,B35,inactive: 1.22
17,B36,inactive: 0.894
18,B37,inactive: 0.889

# Biological target: SHP2 N-SH2 domain L43F
# Assay: as above
# Conditions: peptide library: pTyr-Var
row,Binder,enrichment score
1,B1,inactive: 0.652
2,B2,inactive: 0.458
3,B3,inactive: 0.556
4,B4,inactive: 1.96
5,B5,inactive: 0.86
6,B6,inactive: 0.57
7,B7,inactive: 0.707
8,B8,inactive: 0.84
9,B9,inactive: 1.07
10,B10,inactive: 1.15
11,B11,inactive: 1.28
12,B12,inactive: 1.62
13,B13,inactive: 1.28
14,B14,active: 4.03
15,B15,inactive: 0.84
16,B16,inactive: 0.448
17,B17,inactive: 0.613
18,B18,inactive: 0.7
19,B19,inactive: 2.82

row,Binder,enrichment score
1,B20,inactive: 0.649
2,B21,inactive: 0.676
3,B22,inactive: 0.767
4,B23,inactive: 0.611
5,B24,inactive: 0.921
6,B25,inactive: 0.85
7,B26,inactive: 1.24
8,B27,inactive: 0.881
9,B28,inactive: 0.983
10,B29,inactive: 0.66
11,B30,inactive: 0.894
12,B31,inactive: 0.553
13,B32,inactive: 0.486
14,B33,inactive: 0.679
15,B34,inactive: 0.685
16,B35,inactive: 1.13
17,B36,inactive: 0.839
18,B37,inactive: 0.947

# Biological target: SHP2 N-SH2 domain T42A
# Assay: as above
# Conditions: peptide library: pTyr-Var
row,Binder,enrichment score
1,B1,inactive: 0.529
2,B2,inactive: 0.471
3,B3,inactive: 0.346
4,B4,inactive: 2.08
5,B5,inactive: 0.736
6,B6,inactive: 0.458
7,B7,inactive: 0.493
8,B8,inactive: 0.982
9,B9,inactive: 1.22
10,B10,inactive: 1.06
11,B11,inactive: 1.59
12,B12,inactive: 1.34
13,B13,inactive: 1.46
14,B14,active: 7.44
15,B15,inactive: 0.927
16,B16,inactive: 0.347
17,B17,inactive: 1.25
18,B18,inactive: 0.774
19,B19,inactive: 2.58

row,Binder,enrichment score
1,B20,inactive: 0.643
2,B21,inactive: 0.581
3,B22,inactive: 0.42
4,B23,inactive: 0.584
5,B24,inactive: 0.869
6,B25,inactive: 0.807
7,B26,inactive: 1.71
8,B27,inactive: 0.764
9,B28,inactive: 0.828
10,B29,inactive: 0.638
11,B30,inactive: 0.886
12,B31,inactive: 0.586
13,B32,inactive: 0.483
14,B33,inactive: 0.724
15,B34,inactive: 0.73
16,B35,inactive: 0.905
17,B36,inactive: 0.89
18,B37,inactive: 0.871

# Biological target: SHP2 N-SH2 domain T52S
# Assay: as above
# Conditions: peptide library: pTyr-Var
row,Binder,enrichment score
1,B1,inactive: 0.571
2,B2,inactive: 0.515
3,B3,inactive: 0.568
4,B4,inactive: 2.26
5,B5,inactive: 0.713
6,B6,inactive: 0.666
7,B7,inactive: 0.444
8,B8,inactive: 0.701
9,B9,inactive: 0.989
10,B10,inactive: 1.15
11,B11,inactive: 1.51
12,B12,inactive: 1.25
13,B13,inactive: 2.03
14,B14,active: 5.11
15,B15,inactive: 0.965
16,B16,inactive: 0.49
17,B17,inactive: 1.05
18,B18,inactive: 0.509
19,B19,inactive: 2.36

row,Binder,enrichment score
1,B20,inactive: 0.641
2,B21,inactive: 0.67
3,B22,inactive: 0.457
4,B23,inactive: 0.665
5,B24,inactive: 1.06
6,B25,inactive: 0.69
7,B26,inactive: 1.24
8,B27,inactive: 0.728
9,B28,inactive: 0.936
10,B29,inactive: 0.773
11,B30,inactive: 0.916
12,B31,inactive: 0.568
13,B32,inactive: 0.589
14,B33,inactive: 0.769
15,B34,inactive: 0.812
16,B35,inactive: 1.12
17,B36,inactive: 0.938
18,B37,inactive: 0.8

# Biological target: SHP2 N-SH2 domain wild-type
# Assay: as above
# Conditions: peptide library: pTyr-Var
row,Binder,enrichment score
1,B1,inactive: 0.611
2,B2,inactive: 0.477
3,B3,inactive: 0.54
4,B4,inactive: 0.924
5,B5,inactive: 0.81
6,B6,inactive: 0.617
7,B7,inactive: 0.588
8,B8,inactive: 1.1
9,B9,inactive: 1.04
10,B10,inactive: 1.22
11,B11,inactive: 1.32
12,B12,inactive: 1.78
13,B13,inactive: 1.36
14,B14,inactive: 2.16
15,B15,inactive: 0.953
16,B16,inactive: 0.328
17,B17,inactive: 1.33
18,B18,inactive: 1.09
19,B19,inactive: 2.75

row,Binder,enrichment score
1,B20,inactive: 0.654
2,B21,inactive: 0.89
3,B22,inactive: 0.607
4,B23,inactive: 0.753
5,B24,inactive: 1.2
6,B25,inactive: 1.02
7,B26,inactive: 0.954
8,B27,inactive: 1.05
9,B28,inactive: 0.833
10,B29,inactive: 0.826
11,B30,inactive: 1.1
12,B31,inactive: 0.763
13,B32,inactive: 0.839
14,B33,inactive: 0.769
15,B34,inactive: 0.853
16,B35,inactive: 0.98
17,B36,inactive: 1.02
18,B37,inactive: 1.1
